# Laboratory results as given in PubChem BioAssay (NCI).
#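 Exposure lasted 48 hours, with cells grown in 96-well plates and compounds tested at five concentrations. At the GI50, growth is halved. TGI: total growth inhibition.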
# Tested on: NCI-H322M lung
# Experiment: NCI tumour cell line growth inhibition, 48 h
Compound,GI50,TGI
COCCNCc1ccc(-c2cc3nccc(Oc4ccc(NC(=O)C5(C(=O)Nc6ccc(F)cc6)CC5)cc4F)c3s2)nc1,2.04 µM,4.93 µM
CC1(C2COC(=O)C2)SCCCS1 (stereo not drawn),,> 100 µM
Nc1ccc(Cn2ccc3c4c(N)nc(N)nc4ccc32)cc1,,16.4 µM
O=C1c2ccn(CCCNC(CO)(CO)CO)c2C(=O)c2c1c(O)c1ccccc1c2O,6.51 µM,25.3 µM
CCOC(=O)C1=C(O)C(=O)c2ccoc2C1=O,,> 100 µM
c1ccc2c(c1)SP1Sc3ccccc3P21 (stereo not drawn),,> 100 µM
COc1cccc2c(SCC(=O)Nc3ccccc3-c3ccccc3NC(=O)CSc3c4ccccc4nc4c(OC)cccc34)c3ccccc3nc12,,> 100 µM
CC(=O)[CH-]C(=O)c1ccccc1.CC(=O)[CH-]C(=O)c1ccccc1.CC[C@H](/C=C/C(C)[C@H]1CCC2[C@@H]3CC=C4C[C@@H]([O-])CC[C@]4(C)C3CC[C@@]21C)C(C)C.CC[C@H](/C=C/C(C)[C@H]1CCC2[C@@H]3CC=C4C[C@@H]([O-])CC[C@]4(C)C3CC[C@@]21C)C(C)C.Cl.[Ti+4] (stereo partly drawn),> 25 µM,> 25 µM
COC(=O)c1ccc(C(=O)OC)c2nc3cc(Cl)ccc3nc12,,> 100 µM
COc1ccc(C(OCC2OC3(COC(c4ccccc4)(c4ccc(OC)cc4)c4ccc(OC)cc4)C(Oc4nc(=O)ccn43)C2O)(c2ccccc2)c2ccc(OC)cc2)cc1 (stereo not drawn),,> 100 µM
CCN(CC)S(=O)(=O)c1cccc(-c2ccc3c(NC(=O)C4CC4)n[nH]c3c2)c1,4.81 µM,> 6.25 µM
COC(=O)C(=O)C(C(C)=O)C(=O)NCc1ccccc1 (stereo not drawn),,> 100 µM
Cc1cc(S(=O)(=O)NC2=NCCCN2)c(S)cc1Cl,,> 100 µM
c1ccc(C2=NN=C3C(c4ccccc4)=Nc4ccccc4N3C2)cc1,,> 54.5 µM
C/C(O)=C(\C=NC(=S)c1cccnc1)C(=O)Nc1ccccc1C,,> 100 µM
O=[N+]([O-])C(C(Cl)=C(Cl)Cl)=C(n1nnc2ccccc21)n1nnc2ccccc21,,> 69 µM
Cc1ccc(NC(=S)C#N)c(C)c1,,> 100 µM
Cc1nc2c(O)c3c(c(O)c2nc1C)C1C=CC3CC1,,> 100 µM
CSC1(C(=O)O)C2CCC3C2CCC31 (stereo not drawn),,> 100 µM
CC(C)OC(=O)C1(C(C)C)CCc2ccc(C(=O)CCC(=O)O)cc21 (stereo not drawn),,> 100 µM
CO/C=C1\OC(=O)C=C1OC,,> 100 µM
CSCC(CO)NC(=O)/C=C/c1c(C)[nH]c(=O)[nH]c1=O (stereo not drawn),,866 µM
O=C(O/N=c1/ccc(=O)/c(=N\OC(=O)c2ccccc2)c1=O)c1ccccc1,,> 100 µM
O=C(NCCCl)Nc1ccccc1,,> 100 µM

Compound,GI50,TGI
Cc1nc2sc(C(=O)Nc3ccccc3)c(N)c2cc1C(O)c1ccccc1 (stereo not drawn),0.608 µM,> 100 µM
C=CCC(N[C@H](CO)c1ccccc1)c1ccccn1 (stereo partly drawn),> 100 µM,> 100 µM
Cc1c(NC(=O)CSC(=S)N(C)C)c(=O)n(-c2ccccc2)n1C,,> 100 µM
CCOC(=O)c1c(N2CCOCC2)ncn(-c2cccc(Cl)c2)c1=O,,> 100 µM
C=C(C)C1CCC2=CC(CC3(C)OC3C3=CC(C(=O)OC)=C(C1)O3)OC2=O (stereo not drawn),,> 100 µM
CCCCCCCCCC(=O)NC(CCC(=O)N(CCNC(=O)c1nc(-c2ccccc2)oc1-c1ccccc1)Cc1ccccc1)C(=O)O (stereo not drawn),,34 µM
NCCCC(N=Cc1nc(-c2ccccc2)oc1O)C(=O)O (stereo not drawn),,> 100 µM
O=[N+]([O-])c1ccc(C2SCc3nc4ccccc4n32)cc1 (stereo not drawn),,> 100 µM
O=C1C=C(NCC(c2ccccc2)c2ccccc2)C(=O)c2ncccc21,,8.1 µM
O=C1C(Cl)=C(Nc2cc(Cl)ccc2O)C(=O)N1Cc1ccccc1,23.9 µM,47.1 µM
Cc1cccc2c1Sc1ccccc1C2NC(=O)CN(C)C (stereo not drawn),,> 100 µM
O=CC(O)C(O)C1OC(=O)c2cc(O)c(O)c(O)c2C2=C(O)C(O)=C3OC(=O)c4c(c(O)c(O)c5c4C3C2C(=O)O5)-c2c(cc(O)c(O)c2O)C(=O)OCC1O (stereo not drawn),,> 100 µM
CN(CCCN1C(=O)c2cccc3cc([N+](=O)[O-])cc(c23)C1=O)CCN(C)CCCN1C(=O)c2cccc3cc([N+](=O)[O-])cc(c23)C1=O,,> 39.3 µM
CSc1ccc(NC(=O)Nc2cc(C)ccn2)cc1,,> 100 µM
O=C(N/N=C/c1cc(Cl)ccc1O)c1ccccc1Nc1ccnc(C(F)(F)F)c1,0.586 µM,32.8 µM
CN(C)c1cccc(OC(=O)NCCCl)c1,,> 100 µM
CSc1nnc(-c2cc3c([nH]c4ccccc43)c(-c3cccc(O)c3)n2)n1-c1ccc(C)cc1,7.09 µM,> 100 µM
COc1ccc(/C=C2\COc3ccc(O)c(O)c3C2=O)cc1OC,2.65 µM,34.1 µM
CCCS(=O)c1nc(COC(=O)NC)c(COC(=O)NC)n1C (stereo not drawn),,> 100 µM
CC(C)(O)CCc1cccc(C(=O)c2cnn(-c3ccc(F)cc3)c2N)c1,> 25 µM,> 25 µM
CC(C)N1C(C)[C@@H](c2ccccc2)O[P@@]1(=O)CC1=CCCCC1 (stereo partly drawn),,> 100 µM
COc1c2cc([N+](=O)[O-])cc1CN(C(=O)C(F)(F)F)CCOCCN(C(=O)C(F)(F)F)C2,,> 100 µM
Nc1nc(Cl)c(N)c(NCC2(CO)CCC(CCc3ccccc3)C2)n1 (stereo not drawn),,68.3 µM
Cc1cc2c3c([n+](C)c4ccc(F)cc4c3c1)-c1cc(F)ccc1N2C,29.1 µM,> 100 µM

Compound,GI50,TGI
CCN(CC)/[N+]([O-])=N/OCOC,,> 100 µM
CC(C)(C)C1=CC(=C2C=Cc3cc(O)ccc3O2)C=C(C(C)(C)C)C1=O,,3.6 µM
NNC(=O)CCc1ccc2ccc3ccccc3c2c1,,> 100 µM
C[C@H]1COCCN1c1nc(-c2cnc(N)cc2C(F)F)nc(N2CCOCC2)n1,0.213 µM,> 39.2 µM
Cn1c2c(c3ccccc3c1=O)C(=O)c1ccccc1-2,,> 100 µM
C=C1C(=O)O[C@@H]2CC(CO)=C([C@@H](C)CCCO)[C@@H](OC(=O)/C(C)=C\C)[C@H]12,,> 83.2 µM
Cc1cccc(Nc2nc3ccccc3nc2NS(=O)(=O)c2ccccc2)c1,,> 100 µM
COc1ccc(CCc2ccc3c(c2)OCO3)cc1,,> 100 µM
CCO[C@@]12CCC3CC4CC[C@@](OCC)(O1)C4C32 (stereo partly drawn),,> 100 µM
CN(C)CCNC(=O)c1cccc2c1Oc1cccc([N+](=O)[O-])c1O2,,31.3 µM
COc1cc2c(c(OC)c1OC)C(=O)[C@@H](O)[C@H]2NC(N)=O,,> 100 µM
O=C(OCc1ccccc1)c1ccc(NCc2cc(O)ccc2O)cc1,,23.2 µM
CCCCCCc1cc2cc(-c3cn4c(n3)sc3ccccc34)c(=O)oc2cc1O,,> 100 µM
C=C1C(=O)O[C@H]2[C@H]1CC/C(COC(=O)CCCCCCCC(=O)OC/C1=C/CC[C@@]3(C)O[C@H]3[C@H]3OC(=O)C(=C)[C@@H]3CC1)=C\CC[C@@]1(C)O[C@@H]21,10.2 µM,22.1 µM
C[C@@]1(C(=O)O)CCC[C@]2(C)C1CC[C@]13C[C@@](O)(CO)[C@](O)(CC[C@]12O)C3 (stereo partly drawn),> 100 µM,> 100 µM
CC(=O)OC1CC(OC2C(O)CC(OC3C(O)CC(OC4CCC5(C)C(CCC6C5CCC5(C)C(C7=CC(=O)OC7)CCC65O)C4)OC3C)OC2C)OC(C)C1OC1OC(CO)C(O)C(O)C1O (stereo not drawn),,0.133 µM
NC(=O)C(=O)C1C(=O)N(c2ccccc2)N=C1N (stereo not drawn),,> 100 µM
CC(C)(C)[Si](C)(C)OCCc1ccccc1C1CC2(S(=O)(=O)c3ccccc3)ON1CC2S(=O)(=O)c1ccccc1 (stereo not drawn),,> 100 µM
CC(=O)c1c2c(cc3c1CC1(Cc4cc5c(cc4C1)C(=O)CCC5)C3)CCCC2 (stereo not drawn),,> 100 µM
CC(=Nc1cccc(Cl)c1)c1ccncc1,,> 100 µM
CCOC(=O)[C@@H]1ON2O[C@@H](OC3CCCCC3c3ccccc3)C[C@H]3OC(=O)[C@@H]1C32 (stereo partly drawn),,> 100 µM
CC(C)(C)n1c(=O)n(-c2ccccc2)n(C(C)(C)C)c1=O,,> 100 µM
O=C1CC(Cc2n[nH]c3c2CCCC3)CC(=O)N1,,> 100 µM
CC(C)c1[nH]nc2c(NCc3ccc(-c4ccccn4)cc3)nc(SCCN)nc12,0.0205 µM,11.4 µM

Compound,GI50,TGI
COc1cc(C2c3cc4c(cc3[C@@H](Nc3ccc([N+](=O)[O-])cc3)C3COC(=O)[C@H]23)OCO4)cc(OC)c1O (stereo partly drawn),,56.1 µM
O=C(NCc1ccco1)C1CCN(S(=O)(=O)c2ccc(Cl)cc2)CC1,> 100 µM,> 100 µM
CC(=O)O[C@H]1CC[C@H]2[C@@H]3CCC4=C/C(=N/OCCN(C)C)CC[C@]4(C)[C@H]3CC[C@]12C,,25.6 µM
O=c1[nH]nc(-c2ccccc2)n1-c1cccc([N+](=O)[O-])c1,,> 100 µM
COc1c(-c2ccc3c(c2)OCO3)oc2cc(O)cc(O)c2c1=O,,> 100 µM
OC(CN1CCCC2CCCCC21)c1cc2ccccc2c2ccccc12 (stereo not drawn),3.56 µM,14.6 µM
Cc1ccc(-c2c3c(nn2-c2ccc(S(=O)(=O)NC(=O)NC4CCCCC4)cc2)-c2ccccc2C3)cc1,4.24 µM,18.6 µM
O=C(Nc1ccc([N+](=O)[O-])cc1[N+](=O)[O-])C(=O)C(C(=O)c1ccc(Cl)c(Cl)c1)C1OC(=O)c2ccccc21 (stereo not drawn),,> 100 µM
C=CC(=O)Nc1ccccc1CC(c1c[nH]c2ccccc12)c1c[nH]c2ccccc12,,32.1 µM
CC(C)[C@@H]1CC[C@@H](C)C[C@H]1OC(=O)/C=C1\C(C(=O)O[C@@H]2C[C@H](C)CC[C@H]2C(C)C)[C@H]2C=C[C@@H]1O2 (stereo partly drawn),,> 100 µM
O=C(O)/C(Cl)=C(Cl)/C=N/NC(=O)c1cc2ccccc2cc1O,,> 100 µM
COc1ccc2c(CCCc3ccc(Cl)cc3Cl)c3[n+](cc2c1OC)CCc1cc2c(cc1-3)OCO2,1.81 µM,5.71 µM
O=C(CSC(c1ccccc1)c1ccccc1)N/N=C/c1ccccc1Cl,25.8 µM,> 92.4 µM
CC(C)c1[nH]nc2c(NCc3ccc(-c4ccccn4)cc3)nc(SCCN(C)C)nc12,0.0608 µM,10 µM
CC(C)=CCC/C(C)=C/Cc1c(O)c(C)cc2c1[nH]c1cc(O)ccc12,,> 25 µM
O=C1C(c2c(O)[nH]c3ccc(Cl)cc23)=Nc2ccccc21,,> 100 µM
Cc1ccnc2c(NC(C)CCCN)cc(O)c(O)c12 (stereo not drawn),28.5 µM,> 100 µM
CNn1c(-c2ccc(C)cc2)n[nH]c1=O,,> 100 µM
O=C1C(Cl)=C(Cl)C(=O)N1c1cccc(C(F)(F)F)c1,,> 100 µM
C[C@H](CCC(=O)NCCS(=O)(=O)O)[C@H]1CC[C@H]2[C@@H]3[C@H](O)C[C@@H]4C[C@H](O)CC[C@]4(C)[C@H]3CC[C@]12C,,> 100 µM
CCC[n+]1cc2cc3c(cc2c2c1-c1cc4c(cc1C2)OCO4)OCO3 (tested in a mixture with another compound),1.56 µM,26.1 µM
COc1cc(NCCC(=O)O)c2ncccc2c1,,> 100 µM
